# Measurements published in PubChem BioAssay AID743286 (National Center for Advancing Translational Sciences (NCATS), 2014).
# Among all 1,100 compounds or so, about 340 (31%) were called active. This list was built around the results that the source calls inconclusive (neither active nor inactive); the mix of calls is not that of the screen. Calls come from the whole dose curve; as a rule, active = well fitted inhibition curve with a large enough effect; inconclusive = small, poorly fitted or top-dose-only effect; inactive = flat fitted curve, though single readings scatter. Potencies beside an inconclusive call are fits to weak or partial responses and may not hold up.
# Target: Phosphatidylinositol 5-phosphate 4-kinase type-2 alpha (Homo sapiens) (UniProt P48426)
# Sequence of UniProt P48426 (P48426 whole entry, looked up): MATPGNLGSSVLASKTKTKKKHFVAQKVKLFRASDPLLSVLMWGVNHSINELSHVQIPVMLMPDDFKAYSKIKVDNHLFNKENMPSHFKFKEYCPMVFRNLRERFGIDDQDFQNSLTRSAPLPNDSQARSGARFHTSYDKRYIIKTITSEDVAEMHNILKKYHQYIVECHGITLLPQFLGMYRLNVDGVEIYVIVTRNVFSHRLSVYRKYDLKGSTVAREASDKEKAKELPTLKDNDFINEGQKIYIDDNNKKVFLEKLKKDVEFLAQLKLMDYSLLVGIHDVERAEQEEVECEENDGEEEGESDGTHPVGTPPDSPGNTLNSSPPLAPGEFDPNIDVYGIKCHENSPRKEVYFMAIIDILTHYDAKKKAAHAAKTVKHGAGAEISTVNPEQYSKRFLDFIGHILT
# Assay: qHTS for Inhibitors of PI5P4K: Confirmation in Primary Assay; note: nearly all actives have a fitted effect of over 65% in size
# Conditions: PI5P4Kalpha enzyme, ADP-Glo luminescence, 60 min; series mostly up to 76.9 µM
# Description: In addition to finding PI5P, we discovered the type II phosphatidylinositol 5-phosphate 4-kinase (PI5P4K) family (alpha, beta, gamma isoforms) that catalyze the conversion of PI5P to PI(4,5)P2. Alternatively, PI(4,5)P2 can also be synthesized through phosphatidylinositol-4-phosphate (PI4P) by the type I phosphatidylinositol 4-phosphate 5-kinases (PI4P5K). These PI5P4K enzymes therefore represent one way by which cells can regulate endogenous PI5P levels and play important roles in insulin signaling and in stress responses. […] A qHTS PI5P4K-alpha ADP-Glo assay was developed to identify specific modulators of human PI5P4K, phosphatidylinositol-5-phosphate 4-kinase (Type II PIPK). This assay was screened against the MLSMR containing ~400,000 small molecules (PubChem AID 652105). To confirm that the hits were not interacting with the detection enzyme system, a 1536-well counterscreen against the ADP-Glo kit (Promega) was utilized, as described in Davis et al., 2013 [1]. Davis et al., PLoS One. 2013;8(1):e54127. NIH Chemical Genomics Center [NCGC] NIH Molecular Libraries Probe Centers Network [MLPCN] MLPCN Grant: MH096575 Assay Submitter (PI): Atsuo Sasaki, Beth Israel Deaconess Medical Center
# 2 microL of PI5P4Kalpha/substrate buffer (columns 1-2, 5-48) are dispensed into Greiner white solid bottom 1536-well assay plates; column 3 receives only PI5P4Kalpha buffer as 0x substrate controls; column 4 receives only substrate buffer as 0x PI5P4Kalpha controls. Final assay buffer consists of 0.038 M HEPES pH 7.4, 0.28 mM EGTA, 0.1% CHAPS, and 5% DMSO (final concentration). Compounds are then transferred via Kalypsys pin tool equipped with 1536-pin array (10 nL slotted pins, V&P Scientific, San Diego, CA). Following addition of compound, 1 microL of ATP (5 microM final concentration, all columns) is added to initiate the reaction. ATP is diluted in an assay buffer consisting of 0.02 M HEPES pH 7.4, 60 mM MgCl2, 15 microM ATP, and 0.1% CHAPS. The plates are then incubated at room temperature for 60 minutes. ADP-Glo reagent 1 is added (2 microL) and plates incubated for 45 minutes, before ADP-Glo reagent 2 (4 microL) is added and plates incubated for 30 minutes. They are then transferred to a ViewLux high-throughput CCD imager (PerkinElmer) wherein single end-point measurements of luminescence are acquired using a clear filter.
# Potency is the fitted concentration of half-maximal effect; tags give direction and shape of the fitted curve.
row,SMILES,Potency
1,Cc1c2cnn(CC(=O)Nc3c(F)c(F)cc(F)c3F)c(=O)c2c(C)n1Cc1ccccc1F,"inconclusive: 10 µM [inhibitor, partial curve]"
2,CCOc1ccc(Nc2nc(-c3sc(N)nc3C)cs2)cc1,"inconclusive: 12.6 µM [inhibitor, partial curve]"
3,CC(C)C(=O)Nc1nnc(CCc2ccccc2)s1,"inconclusive: 31.6 µM [inhibitor, partial curve]"
4,COc1ccccc1CNc1nc(NCc2ccc3occc3c2)c2sccc2n1,"inconclusive: 28.2 µM [inhibitor, partial curve]"
5,CNC(=O)c1nc(C)n(-c2ccc(Cl)cc2Cl)n1,inactive
6,CCN1CCN(Cc2ccc(NC(=O)c3cc(NC(=O)c4cc5cccc(OC)c5o4)cc(OC)c3)cc2C(F)(F)F)CC1,active: 25.1 µM
7,Cc1ccc(C)c(-n2c3nc(=O)[nH]c(=O)c-3cc3cc([N+](=O)[O-])ccc32)c1,"inconclusive: 17.8 µM [inhibitor, partial curve]"
8,CCC(=O)OC1(C)C(=O)C2=COC(c3ccc(OC)cc3)=CC2=C(Br)C1=O (configuration not stated),"inconclusive: 31.6 µM [inhibitor, partial curve]"
9,COc1ccc2nc(Nc3sc4c(c3C(N)=O)CCCC4)sc2c1,"inconclusive: 15.8 µM [inhibitor, partial curve]"
10,Cc1ccc(S(=O)(=O)N(C(=O)c2ccco2)c2cc3sc(=O)oc3c3ccccc23)cc1,inactive
11,O=C(COC(=O)c1cccc(S(=O)(=O)N2CCN(c3ccccc3)CC2)c1)NCc1ccco1,"inconclusive: 15.8 µM [inhibitor, partial curve]"
12,O=C(Nc1cccc(S(=O)(=O)NC2=NCCC2)c1)c1cc(-c2ccco2)nc2ccccc12,active: 2.51 µM
13,Cc1oc2ccc(OCc3ccccc3Cl)cc2c1C(=O)O,"inconclusive: 22.4 µM [inhibitor, partial curve]"
14,COc1ccc(C2=NCCn3nc4cc(OC)ccc4c32)cc1,inactive
15,O=C(Nc1ccc(N2CCOCC2)c(S(=O)(=O)Nc2ccc(Cl)cc2)c1)c1ccc(=O)[nH]n1,"inconclusive: 31.6 µM [inhibitor, partial curve]"
16,O=C(NCc1ccccc1)C(c1ccccc1)n1c(=O)c(-c2ccco2)nc2ccccc21 (configuration not stated),inactive
17,O=C(CC1C(=O)NCCN1CC1CCCCC1)NCc1cc(F)ccc1F (configuration not stated),inactive
18,CCOC(=O)C1=C(N)N(c2ccccc2)C(=O)C1,inactive
19,CCc1c(C)sc(NC(=O)Cn2nc(C)c([N+](=O)[O-])c2C)c1C(N)=O,"inconclusive: 20 µM [inhibitor, partial curve]"
20,O=C(O)C1Nc2c(Cl)cc(Cl)c(Cl)c2C2C=CCC12 (configuration not stated),active: 8.91 µM
21,Nc1nc(N)c2cc(Sc3ccc4ccccc4c3)ccc2n1,"inconclusive: 28.2 µM [inhibitor, partial curve]"
22,CCN(CC)C(=O)c1[nH]cnc1C(=O)Nc1ccc(OC)cc1,inactive
23,Cc1ccc2nc(NC(=O)C3CCN(S(=O)(=O)c4cc([N+](=O)[O-])ccc4Cl)CC3)sc2c1,"inconclusive: 14.1 µM [inhibitor, partial curve]"
24,CC1CCCC(C)N1C(=O)COC(=O)CNC(=O)c1ccccc1 (configuration not stated),inactive

row,SMILES,Potency
1,Cc1nc2c(nnn2Cc2ccccc2)c(=O)[nH]1,"inconclusive: 31.6 µM [inhibitor, single point]"
2,Cc1ccc(NC(=O)CN(C)C(=O)c2cccc(-n3cccc3)c2)cc1,active: 20 µM
3,O=C(NC1CC1)C1CCN(S(=O)(=O)c2cc([N+](=O)[O-])ccc2Cl)CC1,"inconclusive: 14.1 µM [inhibitor, partial curve]"
4,Cc1cc2ccccc2nc1SCC(=O)NC1CCCC1,inactive
5,O=C(O)Cc1nc(-c2cccnc2)sc1-c1ccc(Br)cc1,"inconclusive: 17.8 µM [inhibitor, partial curve]"
6,CC1CCc2c(sc3ncnc(NS(=O)(=O)c4cccs4)c23)C1 (configuration not stated),"inconclusive: 31.6 µM [inhibitor, partial curve]"
7,COc1ccc(S(=O)(=O)/N=C2\C=C(NS(=O)(=O)c3ccccc3)C(=O)c3ccccc32)cc1,active: 31.6 µM
8,Cc1cc(-c2csc(N)n2)c(C)n1CCC(C)C,"inconclusive: 14.1 µM [inhibitor, partial curve]"
9,COc1ccc(N2CSC3=C(C#N)C(c4ccc(OC)c(OC)c4)CC(=O)N3C2)c(OC)c1 (configuration not stated),active: 12.6 µM
10,O=C1CCC(C(=O)Nc2ccc([N+](=O)[O-])cc2)N1 (configuration not stated),"inconclusive: 17.8 µM [inhibitor, partial curve]"
11,COc1cccc(C(=O)Nc2cccc(C(=O)NC3=NN(c4c(Cl)cc(Cl)cc4Cl)C(=O)C3)c2)c1,"inconclusive: 22.4 µM [inhibitor, partial curve]"
12,O=C(COc1ccccc1Cl)c1ccc[nH]1,"inconclusive: 22.4 µM [inhibitor, partial curve]"
13,CCCCn1c(N)c(N(CCOC)C(=O)c2cc(-c3ccco3)nc3ccccc23)c(=O)[nH]c1=O,"inconclusive: 11.2 µM [inhibitor, partial curve]"
14,O=S(=O)(Nc1ccccc1N1CCCCC1)c1ccc(Cl)s1,inactive
15,O=c1c2ccccc2cnn1-c1nc2ccccc2[nH]1,active: 25.1 µM
16,CC(C)(C(=O)N1CCC1(C)C(=O)NS(=O)(=O)c1ccc(C#N)cc1)c1ccccc1 (configuration not stated),inactive
17,COc1ccccc1CNc1nc(NCc2ccccc2)nc2ccsc12,"inconclusive: 50.1 µM [inhibitor, single point]"
18,COc1ccccc1OCC(=O)Nc1ccc2c(c1)OCO2,"inconclusive: 15.8 µM [inhibitor, partial curve]"
19,Nc1nc(N)c2cc(S(=O)(=O)c3cccc(C(F)(F)F)c3)ccc2n1,inactive
20,CCN(CC(=O)Nc1ccc(NC(C)=O)cc1)C(=O)c1cc2c(s1)CCCC2,"inconclusive: 14.1 µM [inhibitor, partial curve]"
21,O=C(c1cccc(-n2cccc2)c1)N1CCN(S(=O)(=O)c2ccccc2)CC1,active: 3.98 µM
22,OCCNc1nc(Nc2ccc(Cl)c(Cl)c2)nc2ccccc12,active: 31.6 µM
23,O=C(Nc1ccccn1)c1sc2cc([N+](=O)[O-])ccc2c1Cl,"inconclusive: 3.98 µM [inhibitor, full curve]"
24,NC(=O)c1ccsc1NC(=O)c1ccc([N+](=O)[O-])o1,active: 12.6 µM

row,SMILES,Potency
1,NC(Cc1ccc(C(F)(F)F)cc1)c1csc(NC(=O)Nc2ccccc2Oc2ccccc2)n1 (configuration not stated),"inconclusive: 31.6 µM [inhibitor, single point]"
2,CCc1cc(C(c2ccc(OC)c(OC)c2)N2CCOCC2)c(NC(=O)c2ccccc2)s1 (configuration not stated),"inconclusive: 14.1 µM [inhibitor, partial curve]"
3,Cc1cc2nc(NC(=O)C3(C)CCN3C(=O)C(C)C)[nH]c2cc1C (configuration not stated),inactive
4,Cc1ccc(Nc2nc(-c3sc(N)nc3C)cs2)cc1,"inconclusive: 17.8 µM [inhibitor, partial curve, poor fit]"
5,O=C(NCCCN1CCOCC1)c1sc2cc([N+](=O)[O-])ccc2c1Cl,active: 14.1 µM
6,OCCCNc1cc(-c2ccnc(Nc3cccc(Cl)c3)n2)ccn1,"inconclusive: 15.8 µM [inhibitor, partial curve]"
7,CCOC(=O)C1CCCN(C(=O)c2cc(-c3ccco3)nc3ccccc23)C1 (configuration not stated),active: 3.16 µM
8,CCCNC(=O)C1(C)CCCN(C(=O)c2cc(C)nn2C(C)(C)C)C1 (configuration not stated),inactive
9,Cc1csc(NC(=O)CSc2nc3sc(C)c(C)c3c(=O)[nH]2)n1,"inconclusive: 11.2 µM [inhibitor, partial curve]"
10,O=C(NC1CCCCC1)C(c1ccnc2ccccc12)n1c(=O)c(-c2ccco2)nc2ccccc21 (configuration not stated),"inconclusive: 22.4 µM [inhibitor, partial curve]"
11,CS(=O)(=O)Nc1ccc(C2=NN(C(=O)c3ccco3)C(c3ccc(F)cc3)C2)cc1 (configuration not stated),"inconclusive: 22.4 µM [inhibitor, partial curve]"
12,O=C(Nc1nnc(-c2ccncc2)o1)c1ccccc1,inactive
13,COc1ccc(Nc2ccccc2C(=O)O)cc1,"inconclusive: 25.1 µM [inhibitor, partial curve]"
14,N#Cc1c(-c2ccc(Cl)cc2Cl)nc2n(c1=O)CCS2,"inconclusive: 25.1 µM [inhibitor, partial curve]"
15,FC(F)(F)C1=Nc2cccc3cccc(c23)N1,active: 3.98 µM
16,COc1ccc(OC)c(NC(=O)CSc2ccc(-c3ccco3)nn2)c1,"inconclusive: 17.8 µM [inhibitor, partial curve]"
17,CC(CNC(=O)c1ccc(Br)o1)NC(=O)c1ccc(Br)o1 (configuration not stated),inactive
18,Cc1ccc(C(c2nnnn2CS(=O)(=O)c2ccc(C)cc2)N2CCC(C)CC2)cc1 (configuration not stated),inactive
19,O=C(NCc1ccco1)C1Cc2c(-c3cccc(F)c3)ccnc2O1 (configuration not stated),"inconclusive: 17.8 µM [inhibitor, partial curve]"
20,Cc1sc2ncnc(NC(C)C(=O)O)c2c1C (configuration not stated),active: 3.98 µM
21,O=c1c2c3c(sc2[nH]c(=S)n1Cc1ccco1)CCC3,active: 7.08 µM
22,Cc1cccc(-n2c(=S)[nH]c3sc4c(c3c2=O)CCc2ccccc2-4)c1,"inconclusive: 11.2 µM [inhibitor, partial curve]"
23,Oc1ccc(CNc2ccc(F)cc2)c2cccnc12,"inconclusive: 35.5 µM [inhibitor, single point]"
24,Cc1ccccc1N1CC(C(=O)Nc2nnc(SCC(=O)Nc3nccs3)s2)CC1=O (configuration not stated),"inconclusive: 7.08 µM [inhibitor, partial curve, poor fit]"
